Structures are written as SMILES. The list shows a part of the results.

The subject of one experiment is HSkMC. The experiment is described as follows: cytotoxicity call (relative viability < 0.9). Conditions: 10 µM.
Another experiment relates to HepG2. The experiment is described as follows: cytotoxicity call (relative viability < 0.9). Conditions: 10 µM.
A further experiment has as its system S. aureus RN4220. As to the kind of experiment: growth inhibition call (relative growth <= 0.2). Conditions: 50 µM.

As for `COc1ccc([Si](C)(C)[C@@H]2[C@@H](CC(=O)N3Cc4ccccc4C[C@H]3CO)O[C@]3(C(=O)N(Cc4cccc(N5C(=O)c6cccc7cccc5c67)c4)c4ccccc43)[C@H]2C)cc1`, the cytotoxicity call in the experiment on HSkMC and in the experiment with HepG2 was “inactive” throughout. Moreover, the growth inhibition call with S. aureus RN4220 is “inactive”.

On to `CO[C@@H]1CN(C)C(=O)c2cc(NS(C)(=O)=O)ccc2OC[C@H](C)N(C(=O)c2ccc3c(c2)OCO3)C[C@@H]1C`, for which the cytotoxicity call in the experiment on HSkMC and in the experiment with HepG2 was “inactive” in each case. Also, in the experiment on S. aureus RN4220, the growth inhibition call was “inactive”.

Turning to `Cc1noc(C)c1NC(=O)N(C)C[C@@H]1Oc2ccc(NC(=O)CCN3CCOCC3)cc2CC(=O)N([C@H](C)CO)C[C@@H]1C`, the cytotoxicity call in the experiment on HSkMC and in the experiment with HepG2 was “inactive” throughout. For the same molecule, the growth inhibition call in the experiment with S. aureus RN4220 is “inactive”.

Regarding `Cc1noc(C)c1S(=O)(=O)Nc1ccc2c(c1)C(=O)N([C@@H](C)CO)C[C@H](C)[C@H](CN(C)Cc1ccc(-c3ccccc3)cc1)O2`, the cytotoxicity call with HSkMC and in the experiment on HepG2 was “inactive” throughout. Moreover, the growth inhibition call with S. aureus RN4220 is “inactive”.

For the molecule `COC(=O)C[C@H]1CC[C@@H]2[C@H](COc3ccc(NS(=O)(=O)c4ccccc4Cl)cc3C(=O)N2C)O1`, the cytotoxicity call in the experiment on HSkMC and in the experiment with HepG2 was “inactive” throughout. Besides, the growth inhibition call in the experiment on S. aureus RN4220 was “inactive”.

On to `Cc1ccc(S(=O)(=O)N[C@H](C(=O)NCCn2cc(C(=O)NO)nn2)C(C)C)cc1`, for which the cytotoxicity call in the experiment on HSkMC (human skeletal muscle cells) and in the experiment on HepG2 was “inactive” in each case. Further, in the experiment on S. aureus RN4220, the growth inhibition call is “inactive”.

Take `C[C@H](CO)N1C[C@H](C)[C@@H](CN(C)C(=O)Nc2ccc3c(c2)OCO3)Oc2cc(C#Cc3ccncc3)ccc2S1(=O)=O`: in the experiment with HSkMC, the cytotoxicity call was “inactive”. The cytotoxicity call in the experiment with HepG2 was “active”. Also, the growth inhibition call in the experiment with S. aureus RN4220 is “inactive”.

With `O=C1O[C@@H](c2ccccc2)[C@@H](c2ccccc2)N2[C@@H](c3ccc(O)cc3)[C@]3(C(=O)Nc4ccc(C#CC5(O)CCCCCC5)cc43)[C@@H](C(=O)N3CCCCCCC3)[C@H]12`, the cytotoxicity call with HSkMC and with HepG2 was “inactive” each time. Moreover, the growth inhibition call in the experiment on S. aureus RN4220 is “inactive”.

The values are drawn from the antibiotic and cytotoxicity screens of Wong et al. (2023).
